The results in this text go back to paper PMC11024157.

Protein sequences, listed by entry. Tags and fused reporters are not part of them. Lines headed by an entry give the natural chain unless they say otherwise; changes in a name come on top.
UniProt O43791: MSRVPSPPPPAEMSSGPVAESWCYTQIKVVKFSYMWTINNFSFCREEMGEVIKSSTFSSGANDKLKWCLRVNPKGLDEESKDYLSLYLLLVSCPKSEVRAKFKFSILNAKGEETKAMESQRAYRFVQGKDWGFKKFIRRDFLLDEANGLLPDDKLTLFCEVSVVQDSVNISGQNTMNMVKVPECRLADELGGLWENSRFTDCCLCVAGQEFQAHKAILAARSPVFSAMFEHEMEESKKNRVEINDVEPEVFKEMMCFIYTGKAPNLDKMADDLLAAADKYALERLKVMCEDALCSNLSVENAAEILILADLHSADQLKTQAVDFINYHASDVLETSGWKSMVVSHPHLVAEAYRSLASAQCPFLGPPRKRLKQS
UniProt O96017: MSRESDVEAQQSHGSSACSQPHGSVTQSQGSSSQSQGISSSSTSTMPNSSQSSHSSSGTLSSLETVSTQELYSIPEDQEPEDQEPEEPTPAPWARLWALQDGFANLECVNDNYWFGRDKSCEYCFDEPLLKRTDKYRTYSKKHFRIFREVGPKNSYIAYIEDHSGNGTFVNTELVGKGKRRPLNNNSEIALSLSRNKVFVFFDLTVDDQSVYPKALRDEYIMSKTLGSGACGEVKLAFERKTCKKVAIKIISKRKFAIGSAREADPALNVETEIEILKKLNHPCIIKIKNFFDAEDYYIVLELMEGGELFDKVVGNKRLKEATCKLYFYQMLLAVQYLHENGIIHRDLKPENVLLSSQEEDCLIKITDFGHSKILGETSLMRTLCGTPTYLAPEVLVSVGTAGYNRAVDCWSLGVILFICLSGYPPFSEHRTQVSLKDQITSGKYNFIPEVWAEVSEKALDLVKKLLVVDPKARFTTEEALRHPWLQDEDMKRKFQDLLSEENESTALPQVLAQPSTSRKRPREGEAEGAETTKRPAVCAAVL
UniProt Q13619: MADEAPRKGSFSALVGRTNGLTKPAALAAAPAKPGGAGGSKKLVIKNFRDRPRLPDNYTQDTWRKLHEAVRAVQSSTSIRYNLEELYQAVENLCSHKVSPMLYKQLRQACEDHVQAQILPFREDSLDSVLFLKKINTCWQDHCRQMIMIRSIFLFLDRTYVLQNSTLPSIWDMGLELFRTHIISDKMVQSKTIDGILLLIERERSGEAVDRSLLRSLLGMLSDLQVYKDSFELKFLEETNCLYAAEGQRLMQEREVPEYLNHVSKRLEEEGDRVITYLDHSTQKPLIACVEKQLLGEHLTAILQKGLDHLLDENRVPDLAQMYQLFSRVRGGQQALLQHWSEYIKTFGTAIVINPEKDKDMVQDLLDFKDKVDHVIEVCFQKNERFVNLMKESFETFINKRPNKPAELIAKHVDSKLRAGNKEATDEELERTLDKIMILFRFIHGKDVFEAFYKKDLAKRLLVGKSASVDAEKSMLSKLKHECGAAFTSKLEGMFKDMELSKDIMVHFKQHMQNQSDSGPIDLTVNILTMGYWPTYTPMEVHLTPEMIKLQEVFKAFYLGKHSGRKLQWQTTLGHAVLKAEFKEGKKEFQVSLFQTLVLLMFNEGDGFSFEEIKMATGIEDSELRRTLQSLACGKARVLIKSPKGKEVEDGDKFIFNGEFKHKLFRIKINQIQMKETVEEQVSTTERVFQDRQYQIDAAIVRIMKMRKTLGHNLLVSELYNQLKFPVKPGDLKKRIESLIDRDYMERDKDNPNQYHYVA
UniProt Q14145: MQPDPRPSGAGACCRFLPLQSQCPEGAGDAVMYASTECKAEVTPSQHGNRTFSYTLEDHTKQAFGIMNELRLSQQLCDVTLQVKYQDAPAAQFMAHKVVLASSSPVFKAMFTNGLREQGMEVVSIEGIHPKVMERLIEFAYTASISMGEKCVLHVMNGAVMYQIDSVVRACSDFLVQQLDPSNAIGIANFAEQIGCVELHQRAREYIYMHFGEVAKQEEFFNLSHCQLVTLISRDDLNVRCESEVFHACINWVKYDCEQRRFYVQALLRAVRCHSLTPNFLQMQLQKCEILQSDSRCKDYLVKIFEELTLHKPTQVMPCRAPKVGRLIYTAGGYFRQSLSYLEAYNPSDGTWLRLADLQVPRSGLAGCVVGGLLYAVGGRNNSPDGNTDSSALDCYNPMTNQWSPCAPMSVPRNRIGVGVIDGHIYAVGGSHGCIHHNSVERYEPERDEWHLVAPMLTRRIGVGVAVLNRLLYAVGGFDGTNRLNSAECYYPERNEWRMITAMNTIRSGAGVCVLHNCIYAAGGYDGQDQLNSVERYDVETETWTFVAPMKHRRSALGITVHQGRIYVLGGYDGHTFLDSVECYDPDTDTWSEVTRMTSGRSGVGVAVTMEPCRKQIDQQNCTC

These are yes or no findings as the source states them, for the method shown. In cells and extracts the contact can be indirect. Some results given as binding are weak or reduced against the parent protein; the word gives no strength. For some assays here: Sequences can lack the tags named with a protein.

Test [1] addresses T1, Xp/His-ELK3 (UniProt P41970).
T1 sequence: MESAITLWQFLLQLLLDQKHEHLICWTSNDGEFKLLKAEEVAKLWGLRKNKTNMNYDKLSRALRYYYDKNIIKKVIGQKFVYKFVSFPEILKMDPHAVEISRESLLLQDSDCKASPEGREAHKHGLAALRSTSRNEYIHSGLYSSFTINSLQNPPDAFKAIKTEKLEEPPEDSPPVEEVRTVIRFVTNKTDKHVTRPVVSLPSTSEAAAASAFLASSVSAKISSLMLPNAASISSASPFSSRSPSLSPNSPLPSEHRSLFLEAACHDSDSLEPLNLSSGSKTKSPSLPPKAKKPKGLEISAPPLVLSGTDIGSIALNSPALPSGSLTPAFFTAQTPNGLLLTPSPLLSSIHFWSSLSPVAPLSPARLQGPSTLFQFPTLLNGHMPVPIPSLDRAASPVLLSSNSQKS
Description: co-IP; lysates of HEK293T cells transiently transfected with the indicated plasmids, most panels treated with MG132 (10 μM) for 4 h; docetaxel (300 nM) in Fig. 7d; IP and WB (Fig. 2a: IP with Xpress antibody, WB with Myc antibody).

Test [2] concerns the target T2, ELK3 (endogenous) (human (endogenous in HeLa)) (UniProt P41970).
T2 sequence: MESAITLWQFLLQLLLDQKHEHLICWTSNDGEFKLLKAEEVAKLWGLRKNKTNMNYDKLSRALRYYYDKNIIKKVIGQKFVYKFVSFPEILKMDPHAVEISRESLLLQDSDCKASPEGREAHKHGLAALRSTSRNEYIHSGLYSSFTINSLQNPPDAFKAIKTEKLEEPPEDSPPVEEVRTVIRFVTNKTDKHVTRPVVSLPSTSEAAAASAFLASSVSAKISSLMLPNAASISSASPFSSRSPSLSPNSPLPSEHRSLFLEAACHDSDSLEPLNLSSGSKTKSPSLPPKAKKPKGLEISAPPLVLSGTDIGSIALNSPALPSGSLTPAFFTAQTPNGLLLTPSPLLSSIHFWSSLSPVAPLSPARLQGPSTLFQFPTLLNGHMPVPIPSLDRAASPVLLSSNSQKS
Description: co-IP; endogenous proteins; lysates of HeLa cells treated with MG132 (10 μM) for 8 h; IP and WB.

Test [3] concerns the target T1, Xp/His-ELK3. Description: condition: only cell lysates treated with λ-phosphatase; co-IP; lysates of transfected HEK293T cells treated with λ-phosphatase before IP and WB.
Test [4] addresses T1, Xp/His-ELK3. Description: condition: only cells treated with 5 μM AZD7762 for 12 h; co-IP; transfected HEK293T cells treated with 5 μM AZD7762 (CHK1/2 inhibitor) for 12 h and MG132 (10 μM) for 4 h; IP and WB.
Test [5] concerns the target T3, ELK1 (UniProt P19419).
T3 sequence: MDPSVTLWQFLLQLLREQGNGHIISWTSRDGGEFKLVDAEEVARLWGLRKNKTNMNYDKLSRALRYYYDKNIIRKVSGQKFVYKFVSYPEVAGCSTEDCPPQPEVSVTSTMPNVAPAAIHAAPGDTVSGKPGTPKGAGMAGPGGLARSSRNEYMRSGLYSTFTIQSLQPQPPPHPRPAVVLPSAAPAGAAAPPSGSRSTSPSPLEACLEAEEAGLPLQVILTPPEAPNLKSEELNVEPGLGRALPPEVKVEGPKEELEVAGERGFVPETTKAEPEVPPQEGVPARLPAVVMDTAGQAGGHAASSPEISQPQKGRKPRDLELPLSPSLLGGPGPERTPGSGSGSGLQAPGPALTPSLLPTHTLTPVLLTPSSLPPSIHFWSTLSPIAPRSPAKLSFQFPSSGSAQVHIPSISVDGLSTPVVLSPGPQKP
Description: co-IP; lysates of HEK293T cells transiently transfected with the indicated plasmids, most panels treated with MG132 (10 μM) for 4 h; docetaxel (300 nM) in Fig. 7d; IP and WB (Fig. 2a: IP with Xpress antibody, WB with Myc antibody).

In test [6] the target is T4, ELK3-ΔDeg2 (UniProt P41970).
T4 sequence: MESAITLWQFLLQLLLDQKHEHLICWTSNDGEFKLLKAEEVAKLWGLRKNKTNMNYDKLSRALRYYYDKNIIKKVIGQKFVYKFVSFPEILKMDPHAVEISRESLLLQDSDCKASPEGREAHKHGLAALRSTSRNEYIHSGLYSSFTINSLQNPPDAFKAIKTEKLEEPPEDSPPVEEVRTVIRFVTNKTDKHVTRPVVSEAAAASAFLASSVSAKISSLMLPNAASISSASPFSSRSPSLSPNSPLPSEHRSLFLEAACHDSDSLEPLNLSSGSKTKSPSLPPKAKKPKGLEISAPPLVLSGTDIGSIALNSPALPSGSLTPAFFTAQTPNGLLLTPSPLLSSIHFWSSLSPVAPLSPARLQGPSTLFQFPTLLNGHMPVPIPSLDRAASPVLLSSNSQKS
The test is described as above.

Test [7] concerns the target T5, ELK4 (UniProt P28324).
T5 sequence: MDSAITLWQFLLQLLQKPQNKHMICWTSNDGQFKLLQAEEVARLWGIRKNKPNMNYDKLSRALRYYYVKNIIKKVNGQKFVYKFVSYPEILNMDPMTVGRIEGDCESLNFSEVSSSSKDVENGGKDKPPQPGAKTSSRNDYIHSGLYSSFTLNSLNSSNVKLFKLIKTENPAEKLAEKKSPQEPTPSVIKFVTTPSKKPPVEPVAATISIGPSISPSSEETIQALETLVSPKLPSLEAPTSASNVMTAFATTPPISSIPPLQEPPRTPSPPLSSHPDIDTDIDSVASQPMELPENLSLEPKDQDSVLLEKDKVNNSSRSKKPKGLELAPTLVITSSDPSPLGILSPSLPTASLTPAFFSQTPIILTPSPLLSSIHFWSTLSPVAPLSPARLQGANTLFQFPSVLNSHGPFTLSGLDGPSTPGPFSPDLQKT
The test is described as above.

Test [8] has as its target T6, His-ELK3-S133A (UniProt P41970).
T6 sequence: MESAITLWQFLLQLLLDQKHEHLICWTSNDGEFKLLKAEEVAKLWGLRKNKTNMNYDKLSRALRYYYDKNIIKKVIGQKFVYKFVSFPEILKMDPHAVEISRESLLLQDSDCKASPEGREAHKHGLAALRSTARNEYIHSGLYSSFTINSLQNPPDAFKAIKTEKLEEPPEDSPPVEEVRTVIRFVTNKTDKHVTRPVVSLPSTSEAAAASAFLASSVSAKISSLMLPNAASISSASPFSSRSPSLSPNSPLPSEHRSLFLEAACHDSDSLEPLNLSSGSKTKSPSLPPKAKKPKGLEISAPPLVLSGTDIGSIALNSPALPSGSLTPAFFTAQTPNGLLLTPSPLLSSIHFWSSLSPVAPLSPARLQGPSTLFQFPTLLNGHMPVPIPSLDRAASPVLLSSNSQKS
The description is as above.

Test [9] deals with T7, His-ELK3-S133D (UniProt P41970).
T7 sequence: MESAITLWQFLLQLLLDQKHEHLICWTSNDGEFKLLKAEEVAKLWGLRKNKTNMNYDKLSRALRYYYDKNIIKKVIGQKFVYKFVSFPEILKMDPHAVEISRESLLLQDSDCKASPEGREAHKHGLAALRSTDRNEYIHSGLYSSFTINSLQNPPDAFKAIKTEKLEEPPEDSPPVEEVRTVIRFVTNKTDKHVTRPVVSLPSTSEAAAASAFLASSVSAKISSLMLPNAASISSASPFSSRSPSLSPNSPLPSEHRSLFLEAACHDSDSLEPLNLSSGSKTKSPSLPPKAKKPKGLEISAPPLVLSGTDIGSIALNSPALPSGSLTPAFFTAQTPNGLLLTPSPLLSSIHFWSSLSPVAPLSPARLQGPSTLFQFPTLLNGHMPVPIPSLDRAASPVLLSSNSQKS
Described as above.

For test [10], the target named is GST-SPOP (bacterially expressed) (UniProt O43791). Description: pull-down; partially purified bacterial SPOP (GST-SPOP in the text, His-SPOP in the legend) with lysate of HEK293T cells transfected with His-ELK3 plasmid; pulldown and WB; only the target purified.
Test [11] concerns the target T1, Xp/His-ELK3. Description: co-IP; lysates of HEK293T cells transiently transfected with the indicated plasmids, most panels treated with MG132 (10 μM) for 4 h; docetaxel (300 nM) in Fig. 7d; IP and WB (Fig. 2a: IP with Xpress antibody, WB with Myc antibody). The source holds these as a separate data set.

For the molecule “CHK2 (from UniProt O96017 1-543) (enzyme)”, the binding result in [1] is on record as “binds”.
The same measure, in the same setting: the entry for CUL 4 A (from UniProt Q13619 1-759) is “no binding”.
As to HA-SPOP-wt (from UniProt O43791 1-374), in test [1], the binding entry was “binds”.
For the molecule “Kelch-like ECH-associated protein 1 (from UniProt Q14145 1-624)”, the binding entry in test [1] is given as “no binding”.
The same measure, in the same setting: the entry for Myc-SPOP (from UniProt O43791 1-374) is “binds”.
On to “SPOP (endogenous) (from UniProt O43791 1-374)”, for which the binding result in test [2] is on record as “binds”.
As to “SPOP (transfected, tag not told for these panels) (from UniProt O43791 1-374)”, the binding result in test [3] is given as “no binding”; in [4], “no binding”; in test [5] it was “no binding”; in test [6], “binds”; in test [7], “no binding”; in test [8], “no binding”. Besides, the binding result in test [9] and in test [1] was “binds” in each case.
For the molecule SPOP-F133V (from UniProt O43791 1-374), the binding entry in test [1] is “no binding”.
In the case of SPOP-W131G (from UniProt O43791 1-374), in test [1], the binding result is reported as “no binding”.
Same read-out and setting: the entry for SPOP-Y87C (from UniProt O43791 1-374) is “no binding”.

B1: Xp/His-ELK3 (protein, UniProt P41970 1-407)
chain: MESAITLWQFLLQLLLDQKHEHLICWTSNDGEFKLLKAEEVAKLWGLRKNKTNMNYDKLSRALRYYYDKNIIKKVIGQKFVYKFVSFPEILKMDPHAVEISRESLLLQDSDCKASPEGREAHKHGLAALRSTSRNEYIHSGLYSSFTINSLQNPPDAFKAIKTEKLEEPPEDSPPVEEVRTVIRFVTNKTDKHVTRPVVSLPSTSEAAAASAFLASSVSAKISSLMLPNAASISSASPFSSRSPSLSPNSPLPSEHRSLFLEAACHDSDSLEPLNLSSGSKTKSPSLPPKAKKPKGLEISAPPLVLSGTDIGSIALNSPALPSGSLTPAFFTAQTPNGLLLTPSPLLSSIHFWSSLSPVAPLSPARLQGPSTLFQFPTLLNGHMPVPIPSLDRAASPVLLSSNSQKS
On to B1, for which the binding entry in test [10] was “binds”.

B2: KLHL25 (protein, UniProt Q9H0H3 1-589)
chain: MSVSVHETRKSRSSTGSMNVTLFHKASHPDCVLAHLNTLRKHCMFTDVTLWAGDRAFPCHRAVLAASSRYFEAMFSHGLRESRDDTVNFQDNLHPEVLELLLDFAYSSRIAINEENAESLLEAGDMLQFHDVRDAAAEFLEKNLFPSNCLGMMLLSDAHQCRRLYEFSWRMCLVHFETVRQSEDFNSLSKDTLLDLISSDELETEDERVVFEAILQWVKHDLEPRKVHLPELLRSVRLALLPSDCLQEAVSSEALLMADERTKLIMDEALRCKTRILQNDGVVTSPCARPRKAGHTLLILGGQTFMCDKIYQVDHKAKEIIPKADLPSPRKEFSASAIGCKVYVTGGRGSENGVSKDVWVYDTVHEEWSKAAPMLIARFGHGSAELENCLYVVGGHTSLAGVFPASPSVSLKQVEKYDPGANKWMMVAPLRDGVSNAAVVSAKLKLFVFGGTSIHRDMVSKVQCYDPSENRWTIKAECPQPWRYTAAAVLGSQIFIMGGDTEFTAASAYRFDCETNQWTRIGDMTAKRMSCHALASGNKLYVVGGYFGTQRCKTLDCYDPTSDTWNCITTVPYSLIPTAFVSTWKHLPA
Regarding B2, in test [11], the binding entry is “no binding”.

B3: KLHL2 (protein, UniProt O95198 1-593)
chain: METPPLPPACTKQGHQKPLDSKDDNTEKHCPVTVNPWHMKKAFKVMNELRSQNLLCDVTIVAEDMEISAHRVVLAACSPYFHAMFTGEMSESRAKRVRIKEVDGWTLRMLIDYVYTAEIQVTEENVQVLLPAAGLLQLQDVKKTCCEFLESQLHPVNCLGIRAFADMHACTDLLNKANTYAEQHFADVVLSEEFLNLGIEQVCSLISSDKLTISSEEKVFEAVIAWVNHDKDVRQEFMARLMEHVRLPLLPREYLVQRVEEEALVKNSSACKDYLIEAMKYHLLPTEQRILMKSVRTRLRTPMNLPKLMVVVGGQAPKAIRSVECYDFKEERWHQVAELPSRRCRAGMVYMAGLVFAVGGFNGSLRVRTVDSYDPVKDQWTSVANMRDRRSTLGAAVLNGLLYAVGGFDGSTGLSSVEAYNIKSNEWFHVAPMNTRRSSVGVGVVGGLLYAVGGYDGASRQCLSTVECYNATTNEWTYIAEMSTRRSGAGVGVLNNLLYAVGGHDGPLVRKSVEVYDPTTNAWRQVADMNMCRRNAGVCAVNGLLYVVGGDDGSCNLASVEYYNPTTDKWTVVSSCMSTGRSYAGVTVIDKPL
Turning to B3, the binding result in [11] is recorded as “no binding”.
